Measured values taken from patent US20120315270A1 (UNITED STATES OF AMERICA AS REPRESENTED BY THE, published 2012).
Positions count from the first letter of the chain named. Names may count otherwise.

B1: 1lp1b_003 (designed binder)
chain: SFNDEKKLASNEIAHLPNLNEEQRSAFLSSINDDPSQSANLLAEAKKLNDAQAPKLEVLFQGPGAKFVAAWTLKAAAGDEVDGSHHHHHHSAWSHPQFEK
notes: also called 11p1b_003
B2: 1lp1b-003_L41I_L42A (designed binder)
chain: B1 chain with L41I, L42A
B3: 1lp1b_003_F27A (designed binder)
chain: B1 chain with F27A
B4: 1lp1b_003_I13A (designed binder)
chain: B1 chain with I13A
B5: 1lp1b_003_I13A_L42A (designed binder)
chain: B1 chain with I13A, L42A
B6: 1lp1b_003_I13L_F27A (designed binder)
chain: B1 chain with I13L, F27A
B7: 1lp1b_003_K46A (designed binder)
chain: B1 chain with K46A
B8: 1lp1b_003_L16A (designed binder)
chain: B1 chain with L16A
B9: 1lp1b_003_L19A (designed binder)
chain: B1 chain with L19A
B10: 1lp1b_003_L41A (designed binder)
chain: B1 chain with L41A
B11: 1lp1b_003_L41I_L42V (designed binder)
chain: B1 chain with L41I, L42V
B12: 1lp1b_003_L42A (designed binder)
chain: B1 chain with L42A
B13: 1lp1b_003_Q52A (designed binder)
chain: B1 chain with Q52A
B14: 1lp1b_004 (designed binder)
chain: B1 chain with A14Q, L28I, I31L
notes: also called 11p1b_004
B15: 1lp1b_001 (designed binder)
chain: VDNSFNDEKKLASNEIAHLPNLNEEQRSAFLSSINDDPSQSANLLAEAKKLNDAQAPKLEVLFQGPGAKFVAAWTLKAAAGDEVDGSHHHHHHSAWSHPQFEK
notes: also called 11p1b_001
B16: 1lp1b_002 (designed binder)
chain: B15 chain with A17Q, L31I, I34L
notes: also called 11p1b_002
B17: 1lp1b-003_Surf1 (designed binder)
chain: B1 chain with E12R, H15N, S30K, A43E, K46L, P54Q
notes: also called 1l1pb_003_Surf1
B18: 1lp1b-003_Surf8 (designed binder)
chain: B1 chain with E12R, H15N, E21Q, S30K, A43E, K46L, A51N, P54Q
notes: also called 1l1pb_003_Surf8
B19: 1lp1b_003_Glyc2 (designed binder)
chain: B1 chain with E22T, S36N, E44N, K46T
B20: 1lp1b_003_K272E (designed binder)
chain: B1 chain with K7E
notes: also called 1lp1b(K272E)
B21: 1lp1b-003_Glyc1 (designed binder)
chain: SFNDEKKLASNEIAHLPNLNETQRSAFLSSINDDPSQSANLLANATKLNDAQAPLEVLFQGPGAKFVAAWTLKAAAGDEVDGSHHHHHHSAWSHPQFEK
notes: also called 1l1pb_003_Glyc1

biological target: motavizumab (as used in ITC); assay: ITC

Compared with B1, B2 is higher in “-TdS” value: -10.5 for the first, -9 for the second.

First: B3
Second: B4
The “-TdS” value of the first is lower: 2.7 for the first, 7.4 for the second.

Going from B5 to B6, the “-TdS” value falls from 18.8 to 10.1.

First: B7
Second: B8
The “-TdS” value of the first is lower: -5.1 for the first, 3.4 for the second.

First: B9
Second: B10
The “-TdS” value of the first is higher: 20.9 for the first, -5.7 for the second.

Compared with B11, B12 is higher in “-TdS” value: -7.9 for the first, -5.1 for the second.

For B13, the “-TdS” value was -8.8.

Going from B1 to B2, the Kd falls from 126 nM to 24 nM (5.2-fold). The second binds more tightly here.

Compared with B3, B4 is 4.6-fold higher in Kd: 83 nM for the first, 380 nM for the second. The first binds more tightly here.

Compared with B5, B6 is 67-fold lower in Kd: 10700 nM for the first, 159 nM for the second.

Going from B7 to B8, the Kd rises from 21 nM to 341 nM (16-fold).

Compared with B9, B10 is 270-fold lower in Kd: 21000 nM for the first, 79 nM for the second.

B11 and B12 are within 1.5-fold of each other in Kd: 90 nM for the first, 93 nM for the second.

B13 gave a Kd of 16 nM.

Compared with B1, B2 is lower in dH: 1.1 for the first, -1.3 for the second.

Going from B3 to B4, the dH falls from -12.4 to -16.2.

First: B5
Second: B6
The dH of the first is lower: -25.6 for the first, -19.4 for the second.

First: B7
Second: B8
The dH of the first is higher: -5.3 for the first, -12.3 for the second.

Compared with B9, B10 is higher in dH: -27.3 for the first, -4 for the second.

Going from B11 to B12, the dH falls from -1.7 to -4.4.

B13 gave a dH of -1.8.

biological target: T1, Motavizumab fragment of antigen binding (Fab); assay: SPR (Biacore), motavizumab Fab immobilised, immunogen injected
T1 construct: also called motavizumab Fab

Compared with B1, B14 is 4.5-fold higher in Kd: 66 nM for the first, 296 nM for the second.

Compared with B15, B16 is 3.9-fold higher in Kd: 181 nM for the first, 700 nM for the second.

biological target: T1, Motavizumab fragment of antigen binding …; assay: as above; remark: another data set of the same source

Going from B1 to B2, the Kd rises from 66 nM to 247 nM (3.7-fold). The first binds more tightly here.

B17 and B18 are within 1.5-fold of each other in Kd: 120 nM for the first, 117 nM for the second.

First: B3
Second: B19
The Kd of the first is 1.7-fold lower: 490 nM for the first, 812 nM for the second. The first binds more tightly here.

First: B4
Second: B6
The Kd of the first is 4.3-fold higher: 2300 nM for the first, 541 nM for the second.

First: B8
Second: B10
The Kd of the first is 7.4-fold higher: 2300 nM for the first, 310 nM for the second. The second binds more tightly here.

Going from B11 to B12, the Kd rises from 77 nM to 218 nM (2.8-fold). The first binds more tightly here.

B13 and B14 are within 1.5-fold of each other in Kd: 233 nM for the first, 296 nM for the second.

First: B15
Second: B16
The Kd of the first is 3.9-fold lower: 181 nM for the first, 700 nM for the second.

B21 gave a Kd of 400 nM.

B20: no binding.

biological target: T1, Motavizumab fragment of antigen binding …; assay: SPR (Biacore), motavizumab Fab immobilised, immunogen injected; Biacore, not ITC

B7 gave a Kd of 148 nM.
